# Source: publication PMC11995724, “Antibiotic target discovery by integrated phenotypic and activity-based profiling of electrophilic fragments” (Cell chemical biology, 2025)
# Out of some 3,200 compounds screened, about 110 (3.4%) showed an effect of 50% or more. The list shows a part of the results.
# Tested on: T1, V. cholerae SAD30
# T1 construct: SAD30
# Set-up: species or system S. aureus MSSA476 (TSB) or V. cholerae SAD30 (LB); 384-well bacterial growth screen at 25 uM, OD600 relative to DMSO control
# Conditions: relative growth, OD600, LB; 25 µM; inhibitor
row,Compound,% of control remaining [%]
1,"O=C(CCl)C1CC1(Cl)Cl (stereo not shown) [10-K09, 2-chloro-1-(2,2-dichlorocyclopropyl)ethan-1-one]",101.617
2,"C=CC(=O)NC1CCc2ccccc21 (stereo not shown) [1-A14, N-(2,3-dihydro-1H-inden-1-yl)prop-2-enamide]",85.9492
3,"Cc1nn(CCC(=O)N2CCSSCC2)c(C)c1[N+](=O)[O-] [10-J05, 3-(3,5-dimethyl-4-nitro-1H-pyrazol-1-yl)-1-(1,2,5-dithiazepan-5-yl)propan-1-one]",92.1099
4,"CC(C1CC1)N(Cc1ccccc1)C(=O)CCl (stereo not shown) [5-F09, N-benzyl-2-chloro-N-(1-cyclopropylethyl)acetamide]",97.5097
5,"CC(C)C(NC(=O)CCl)c1ccc(F)c(C#N)c1 (stereo not shown) [6-I19, 2-chloro-N-[1-(3-cyano-4-fluorophenyl)-2-methylpropyl]acetamide]",94.189
6,"CC(Cl)C(=O)NCC1CN(c2nncs2)CCO1 (stereo not shown) [7-O03, 2-chloro-N-{[4-(1,3,4-thiadiazol-2-yl)morpholin-2-yl]methyl}propanamide]",90.798
7,"C=CC(=O)N(C)CC(=O)NC(C)c1ncc(C)s1 (stereo not shown) [3-I14, N-methyl-N-({[1-(5-methyl-1,3-thiazol-2-yl)ethyl]carbamoyl}methyl)prop-2-enamide]",91.3839
8,"O=C(CCl)N(Cc1cccs1)C1CCS(=O)(=O)C1 (stereo not shown) [4-L12, 2-chloro-N-(1,1-dioxo-1lambda6-thiolan-3-yl)-N-[(thiophen-2-yl)methyl]acetamide]",108.173
9,"Cc1n[nH]c(C)c1C=C(C#N)C(=O)Nc1cc(Cl)cc(Cl)c1 [8-M08, 2-cyano-N-(3,5-dichlorophenyl)-3-(3,5-dimethyl-1H-pyrazol-4-yl)prop-2-enamide]",68.3209
10,"Cc1cccc(Cc2cnc(NC(=O)C(C)Cl)s2)c1 (stereo not shown) [4-D19, 2-chloro-N-{5-[(3-methylphenyl)methyl]-1,3-thiazol-2-yl}propanamide]",82.1221
11,"N#CC(=Cc1ccc(OC(F)F)cc1)C(=O)NC1CCCCC1 [9-A04, 2-cyano-N-cyclohexyl-3-[4-(difluoromethoxy)phenyl]prop-2-enamide]",91.2984
12,"C=CC(=O)Nc1ccc(C(=O)Nc2ccc(N3CCOCC3)nc2)cc1 [1-K15, N-[6-(morpholin-4-yl)pyridin-3-yl]-4-(prop-2-enamido)benzamide]",86.5471
13,"CC(Cl)C(=O)N1Cc2ccccc2C(n2cccn2)C1 (stereo not shown) [6-F20, 2-chloro-1-[4-(1H-pyrazol-1-yl)-1,2,3,4-tetrahydroisoquinolin-2-yl]propan-1-one]",86.757
14,"CC(Cl)C(=O)Nc1cccc2ncccc12 (stereo not shown) [4-M10, 2-chloro-N-(quinolin-5-yl)propanamide]",97.4768
15,"Cc1cc(C=C(C#N)C(=O)NCc2ccccc2)c(C)n1C1CC1 [8-G14, N-benzyl-2-cyano-3-(1-cyclopropyl-2,5-dimethyl-1H-pyrrol-3-yl)prop-2-enamide]",61.3868
16,"C=CC(=O)N1CCC(C(=O)N2CCC[C@H]2c2ncn[nH]2)CC1 [2-D12, 1-{4-[(2S)-2-(1H-1,2,4-triazol-5-yl)pyrrolidine-1-carbonyl]piperidin-1-yl}prop-2-en-1-one]",91.1223
17,"N#CC(=Cc1cccc2c1OCCCO2)C(=O)NCc1ccccc1 [9-G05, N-benzyl-2-cyano-3-(3,4-dihydro-2H-1,5-benzodioxepin-6-yl)prop-2-enamide]",91.5704
18,"CC(Cl)C(=O)NCc1nc(C2CC2)n[nH]1 (stereo not shown) [7-L19, 2-chloro-N-[(3-cyclopropyl-1H-1,2,4-triazol-5-yl)methyl]propanamide]",80.3568
19,"C=CC(=O)N1CCOCC1c1ccnn1C (stereo not shown) [3-I19, 1-[3-(1-methyl-1H-pyrazol-5-yl)morpholin-4-yl]prop-2-en-1-one]",94.9127
20,"O=C(CCl)NCCOc1ccc2ccccc2c1 [6-A14, 2-chloro-N-[2-(naphthalen-2-yloxy)ethyl]acetamide]",97.9809
21,"Cc1cc(=O)[nH]c(-c2cccc(NC(=O)C(C#N)=Cc3ccco3)c2)n1 [8-B10, 2-cyano-3-(furan-2-yl)-N-[3-(4-methyl-6-oxo-1,6-dihydropyrimidin-2-yl)phenyl]prop-2-enamide]",79.4697
22,"CC(C)NC(=O)C(C#N)=Cc1ccc(C(F)(F)F)cc1 [8-L13, 2-cyano-N-(propan-2-yl)-3-[4-(trifluoromethyl)phenyl]prop-2-enamide]",68.3209

row,Compound,% of control remaining [%]
1,"COC(=O)c1ccc2[nH]cc(C(=O)CCl)c2c1 [10-D05, methyl 3-(2-chloroacetyl)-1H-indole-5-carboxylate]",99.1233
2,"CC(C)NC(=O)C(C#N)=Cc1cccc(C(F)(F)F)c1 [9-J13, 2-cyano-N-(propan-2-yl)-3-[3-(trifluoromethyl)phenyl]prop-2-enamide]",88.7152
3,"N#CC(=Cc1ccco1)C(=O)Nc1ccc2nc(S)oc2c1 [9-E16, 2-cyano-3-(furan-2-yl)-N-(2-sulfanyl-1,3-benzoxazol-6-yl)prop-2-enamide]",84.7723
4,"C=CC(=O)NCC1OCCc2sc(F)cc21 (stereo not shown) [2-P09, N-({2-fluoro-4H,6H,7H-thieno[3,2-c]pyran-4-yl}methyl)prop-2-enamide]",100.54
5,"C=CC(=O)NC[C@@H]1C=C[C@H]2C[C@@H]1CO2 (racemic) [1-I03, rac-N-{[(1R,2S,5S)-6-oxabicyclo[3.2.1]oct-3-en-2-yl]methyl}prop-2-enamide]",99.1031
6,"CC(Cl)C(=O)N(C)Cc1nccn1Cc1ccccc1 (stereo not shown) [6-J09, N-[(1-benzyl-1H-imidazol-2-yl)methyl]-2-chloro-N-methylpropanamide]",93.1273
7,"C=CC(=O)N(CC)CC(=O)N1CCCC(N2CCCS2(=O)=O)C1 (stereo not shown) [3-I08, N-{2-[3-(1,1-dioxo-1lambda6,2-thiazolidin-2-yl)piperidin-1-yl]-2-oxoethyl}-N-ethylprop-2-enamide]",95.2656
8,"CS(=O)(=O)c1ccc(C(=O)CCl)cc1 [10-I13, 2-chloro-1-(4-methanesulfonylphenyl)ethan-1-one]",0
9,"C=CC(=O)N1CCC(C(=O)N2CCCC(O)C2)(c2ccccc2)CC1 (stereo not shown) [2-P06, 1-[4-(3-hydroxypiperidine-1-carbonyl)-4-phenylpiperidin-1-yl]prop-2-en-1-one]",94.6734
10,"Cc1cc(C=C2CCN(C(=O)C(C)Cl)CC2)no1 (stereo not shown) [6-N03, 2-chloro-1-{4-[(5-methyl-1,2-oxazol-3-yl)methylidene]piperidin-1-yl}propan-1-one]",102.531
11,"C=CC(=O)N1CCN(C(=O)c2ccco2)CC1 [1-P11, 1-[4-(furan-2-carbonyl)piperazin-1-yl]prop-2-en-1-one]",101.345
12,"Cc1ccc2sc(N(Cc3ccccc3)C(=O)CCl)nc2c1C [4-K06, N-benzyl-2-chloro-N-(4,5-dimethyl-1,3-benzothiazol-2-yl)acetamide]",100.927
13,"C=CC(=O)N1CCN(Cc2nc(C(C)C)no2)CC1 [3-G11, 1-(4-{[3-(propan-2-yl)-1,2,4-oxadiazol-5-yl]methyl}piperazin-1-yl)prop-2-en-1-one]",93.5012
14,"C=CC(=O)Nc1cc(S(=O)(=O)N(C)C)cc(C)c1C [1-K11, N-[5-(dimethylsulfamoyl)-2,3-dimethylphenyl]prop-2-enamide]",84.006
15,"N#CC(=Cc1cccc(O)c1)C(=O)NCc1ccc(Cl)cc1 [8-P14, N-[(4-chlorophenyl)methyl]-2-cyano-3-(3-hydroxyphenyl)prop-2-enamide]",72.9436
16,"CC(Cl)C(=O)Nc1sc(-c2ccccc2)cc1C(N)=O (stereo not shown) [4-H13, 2-(2-chloropropanamido)-5-phenylthiophene-3-carboxamide]",77.6364
17,"C=CC(=O)N(C)Cc1nnc(C2CC2)n1C [2-H11, N-[(5-cyclopropyl-4-methyl-4H-1,2,4-triazol-3-yl)methyl]-N-methylprop-2-enamide]",90.5047
18,"C=CCNC(=O)C(C#N)=Cc1ccc(-c2ccc(F)cc2)o1 [8-L20, 2-cyano-3-[5-(4-fluorophenyl)furan-2-yl]-N-(prop-2-en-1-yl)prop-2-enamide]",70.3603
19,"Cc1ccc(C=C(C#N)C(=O)N2CCCC2)cc1 [8-E17, 3-(4-methylphenyl)-2-(pyrrolidine-1-carbonyl)prop-2-enenitrile]",68.8647
20,"COc1ccc(N(CC(F)(F)F)C(=O)CCl)cc1 [4-C15, 2-chloro-N-(4-methoxyphenyl)-N-(2,2,2-trifluoroethyl)acetamide]",101.1
21,"C=CC(=O)N1CCC(C(=O)NC(C)c2cccc(C(F)(F)F)c2)CC1 (stereo not shown) [3-G13, 1-(prop-2-enoyl)-N-{1-[3-(trifluoromethyl)phenyl]ethyl}piperidine-4-carboxamide]",76.3867
